About 14,000 (4.5%) of roughly 310,000 compounds showed an effect of 50% or more. The effect is printed as a negative number. Some of the results follow.
target: human ether-à-go-go-related gene (hERG) potassium channel (human, UniProt Q12809); test: primary screen, population patch clamp on CHO cells stably expressing hERG
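Note: peak tail current of the secondary pulse compared with the same well before compound.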

Chain of human ether-à-go-go-related gene (hERG) potassium channel (Q12809 whole entry, looked up): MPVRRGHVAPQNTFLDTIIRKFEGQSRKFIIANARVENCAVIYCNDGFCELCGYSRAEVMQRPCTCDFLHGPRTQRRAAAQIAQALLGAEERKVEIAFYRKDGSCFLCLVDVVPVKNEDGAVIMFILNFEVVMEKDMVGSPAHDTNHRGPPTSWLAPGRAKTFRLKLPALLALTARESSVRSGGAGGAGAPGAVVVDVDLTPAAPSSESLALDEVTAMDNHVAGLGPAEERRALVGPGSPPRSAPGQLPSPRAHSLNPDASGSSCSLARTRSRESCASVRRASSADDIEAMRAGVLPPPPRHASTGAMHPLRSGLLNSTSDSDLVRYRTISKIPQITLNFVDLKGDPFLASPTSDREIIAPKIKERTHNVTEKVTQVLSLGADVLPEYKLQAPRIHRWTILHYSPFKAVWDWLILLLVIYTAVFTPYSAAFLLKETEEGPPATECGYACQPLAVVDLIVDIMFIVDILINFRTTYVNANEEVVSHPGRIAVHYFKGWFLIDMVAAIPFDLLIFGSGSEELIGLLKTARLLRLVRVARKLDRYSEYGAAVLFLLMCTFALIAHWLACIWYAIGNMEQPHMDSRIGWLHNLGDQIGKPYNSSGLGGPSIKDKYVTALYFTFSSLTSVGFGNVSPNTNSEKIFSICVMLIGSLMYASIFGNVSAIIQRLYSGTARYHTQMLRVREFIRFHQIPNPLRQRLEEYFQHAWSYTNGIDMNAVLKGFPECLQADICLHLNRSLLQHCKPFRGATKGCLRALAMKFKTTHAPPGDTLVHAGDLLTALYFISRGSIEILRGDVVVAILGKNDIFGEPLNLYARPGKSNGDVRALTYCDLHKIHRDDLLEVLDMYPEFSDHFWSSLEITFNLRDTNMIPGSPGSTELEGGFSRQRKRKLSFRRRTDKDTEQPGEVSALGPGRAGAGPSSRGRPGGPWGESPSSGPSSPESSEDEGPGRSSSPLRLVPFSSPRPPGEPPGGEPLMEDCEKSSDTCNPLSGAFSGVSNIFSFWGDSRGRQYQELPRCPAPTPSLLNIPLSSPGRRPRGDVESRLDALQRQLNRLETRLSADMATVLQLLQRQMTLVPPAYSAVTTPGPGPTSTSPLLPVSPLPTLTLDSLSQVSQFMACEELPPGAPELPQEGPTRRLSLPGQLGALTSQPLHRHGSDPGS

Going from `COCCn1c(=O)[nH]c2cc(C(=O)Nc3cc(OC)c(OC)c(OC)c3)ccc2c1=O` to `COc1ccc(C(=O)N2CCN(CCNC(=O)C(=O)Nc3ccc(F)cc3)CC2)cc1OC`, the “hERG current change (%, negative = inhibition) at 10uM” value falls from 10.6% to -61.5%.

First: N#Cc1c(-c2ccco2)cc(-c2ccc(F)cc2)nc1N
Second: COc1ccc(-c2cc(C(=O)Nc3sc4c(c3C#N)CCCC4)c3ccccc3n2)cc1OC
The “hERG current change (%, negative = inhibition) at 10uM” value of the first is lower: -2.08% for the first, 14.3% for the second.

Compared with `CC(C)CNC(=O)c1cccc(NC(=O)CSc2ccc(Cl)cc2)c1`, `COc1ccc(NC(=O)NNC(=O)c2ccc3ccccc3c2O)c(OC)c1` is higher in “hERG current change (%, negative = inhibition) at 10uM” value: -5.39% for the first, 3.97% for the second.

Going from `COC(=O)c1cn(CC(=O)NC2CCCCCC2)c2ccccc12` to `COc1ccccc1NC(=O)COc1ccc(Br)cc1CNC1CCCC1`, the “hERG current change (%, negative = inhibition) at 10uM” value falls from -2.33% to -53.2%.

Going from `CCCSc1ccc([C@@H]2[C@H]3C(=O)N(CC)C(=O)[C@H]3[C@]3(C(=O)OC)CCCCN23)cc1.O=C(O)C(F)(F)F` to `COc1ccc2cc(C(=O)C3CCCN(C(=O)c4csnn4)C3)ccc2c1` (stereo not drawn), the “hERG current change (%, negative = inhibition) at 10uM” value falls from 2.18% to -13.2%.

Going from `Cc1[nH]oc(=O)c1N=Nc1c(Cl)cccc1Cl` to `Cc1cc(S(=O)(=O)Nc2ccccc2C(=O)O)ccc1Cl`, the “hERG current change (%, negative = inhibition) at 10uM” value rises from -1.98% to 23.4%.

First: Cc1cc(C)cc(NC(=O)CCNC(=O)N2C[C@H]3C[C@@H](C2)c2cccc(=O)n2C3)c1
Second: CCc1cccc(CC)c1NC(=O)CN1CC(C)SC1=NC1CCCCC1 (stereo not drawn)
The “hERG current change (%, negative = inhibition) at 10uM” value of the first is higher: 10.2% for the first, 3.42% for the second.

Compared with `COc1ccc(CNC(=O)C/C(C)=N/NC(=O)COc2ccccc2)cc1`, `CCOC(=O)c1ccccc1NC(=O)COc1coc(CN2CCc3ccccc32)cc1=O` is lower in “hERG current change (%, negative = inhibition) at 10uM” value: -19.5% for the first, -36% for the second.

Going from `N#Cc1ccsc1NC(=O)CCc1ccccc1` to `COc1ccc(CN(C)CC(=O)Nc2sc3c(c2C#N)CCC3)cc1OC`, the “hERG current change (%, negative = inhibition) at 10uM” value rises from -9.24% to 3.85%.

Going from `Cc1cc(C)nc(/N=C(\N)Nc2ccc3c(c2)OCCO3)n1` to `COc1ccc(C(=O)CSc2nc(C)cc(C)n2)cc1[N+](=O)[O-]`, the “hERG current change (%, negative = inhibition) at 10uM” value falls from 6.67% to -6.17%.

Going from `O=C(c1cc(C(=O)NCCc2ccccc2)c(=O)n(CCc2ccccc2)c1)c1cc(Cl)ccc1O` to `CCCCCn1c(=O)c(C(=O)Nc2ccccc2Cl)c(O)c2ccccc21`, the “hERG current change (%, negative = inhibition) at 10uM” value rises from -8.43% to 14.9%.

Compared with `O=c1c2ccccc2nnn1COc1cccc(Cl)c1`, `C#CCn1c2ccccc2c2nc3ccccc3nc21` is higher in “hERG current change (%, negative = inhibition) at 10uM” value: 2.08% for the first, 16.5% for the second.

Compared with `CC1(C)CC(=O)C2=C(C1)c1c(ccc3ccccc13)NC2c1ccc(Br)o1` (stereo not drawn), `COc1ccccc1C1/C(=C(/O)c2ccc(C)cc2)C(=O)C(=O)N1Cc1ccco1` (stereo not drawn) is lower in “hERG current change (%, negative = inhibition) at 10uM” value: 9.38% for the first, 2.75% for the second.

Going from `Cc1cccc(NC(=O)c2cccc(OC(=S)N3CCOCC3)c2)c1C` to `O=C1OCc2ccc(NC(=O)c3ccccc3C(=O)O)cc21`, the “hERG current change (%, negative = inhibition) at 10uM” value falls from 5.1% to 1.1%.

Going from `Cc1ccc(N2C(=O)CC(Nc3ccc(Cl)c(S(=O)(=O)N(C)C)c3)C2=O)c(C)c1` (stereo not drawn) to `Cc1ccc(S(=O)(=O)Oc2ccccc2N2C(=O)C3CC=CCC3C2=O)cc1` (stereo not drawn), the “hERG current change (%, negative = inhibition) at 10uM” value rises from -4.31% to -4.06%.

Going from `CN(C)c1cccc(N(C)C)c1CNC(=O)NC(=O)c1c(F)cccc1F` to `CCC(C)(C)NC(=S)Nc1ccccc1C`, the “hERG current change (%, negative = inhibition) at 10uM” value falls from 18.4% to 13.4%.

Compared with `CCOC(=O)C(=CNc1cc(C)nn1C(C)(C)C)C(=O)OCC`, `CCOC(=O)c1sc(NC(=O)C(C)Sc2nnc(N)s2)nc1C` (stereo not drawn) is higher in “hERG current change (%, negative = inhibition) at 10uM” value: -0.0655% for the first, 14.5% for the second.

Going from `O=C(Cn1cnc2c(nnn2-c2ccccc2)c1=O)NCC1CCCO1` (stereo not drawn) to `CCSc1nnc(NC(=O)CSc2nccn2-c2cccc(C)c2)s1`, the “hERG current change (%, negative = inhibition) at 10uM” value falls from 15.1% to -2.41%.

Compared with `CCCc1cc(=O)oc2cc(C)cc(OCc3nn[nH]n3)c12`, `Cc1cc(C)n(CC(=O)N2CCCC(N3CCN(Cc4ccc5c(c4)OCO5)CC3)C2)n1` (stereo not drawn) is lower in “hERG current change (%, negative = inhibition) at 10uM” value: 13% for the first, -14.2% for the second.

Going from `COc1ccc(N2CCN(C(=O)c3cc4cc(Cl)ccc4[nH]3)CC2)cc1` to `CN(Cc1ccccc1)C(=O)c1nc2ccccn2c1CN1CCC(N2CCOCC2)CC1`, the “hERG current change (%, negative = inhibition) at 10uM” value falls from 9.33% to -16.6%.

First: CN(C)S(=O)(=O)c1ccc(C(=O)NCC[N+]2(C)CCCCCC2)o1.[I-]
Second: O=[N+]([O-])c1cc([N+](=O)[O-])c2c(=Nc3ccccc3)n(-c3ccccc3)n(O)c2c1
The “hERG current change (%, negative = inhibition) at 10uM” value of the first is higher: 16.3% for the first, -14.3% for the second.

Source: paper PMC4336329 (PLoS ONE, 2015)
